Reference: a collection of fitness landscapes (doi:10.1016/j.celrep.2020.107928)
In all, about 81,000 sequences were measured (“one-hybrid fitness for binding parS DNA”: median about -0.17, highest 2% from about 0.51 on). Some of the results follow.

B1: Caulobacter ParB omega fusion; a variant is named by its letters at X, in order, B8GW30 (parent)
chain: MESVVVGEPGMSEGRRGLGRGLSALLGEVDAAPAQAPGEQLGGSREAPIEILQRNPDQPRRTFREEDLEDLSNSIREKGVLQPILVRPSPDTAGEYQIVAGERAWRAAQRAGLKTVPIMVRELDDLAVLEIGIIENVQRADLNVLEEALSYKVLMEKFERTQENIAQTIGKSXSHVANXMRLLXLPDEVQSYLVSGELTAXHARAIAAAADPVALAKQIIEGGLSVRETEALARKAPNLSAGKSKGGRPPRVKDTDTQALESDLSSVLGLDVSIDHRGSTGTLTITYATLEQLDDLCNRLTRGI

Variants of: B1
Assay: one-hybrid fitness for binding parS DNA (scaled: cognate 1, non-cognate 0); higher = stronger binding
Details: with parS DNA site
Method in brief: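 Fitness is the rescaled log change in variant-to-wild-type read ratio, measured by Illumina sequencing of plasmids before and after bacterial one-hybrid selection. The scale puts cognate at 1 and non-cognate at 0. Selection of Caulobacter ParB libraries, four specificity codons randomised, took place in E. coli USO with a HIS3 reporter, site 19 bp from the promoter, over 48 hours at 37°C on M9-minus-histidine with 0.1 mM IPTG and 5 mM 3-AT.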

| Variant | one-hybrid fitness for binding parS DNA |
| --- | --- |
| YWTT | ≤ 0.2 |
| AMCC | ≤ 0.2 |
| HMIT | ≤ 0.2 |
| TKHA | ≤ 0.2 |
| NIYR | ≤ 0.2 |
| MFLM | ≤ 0.2 |
| CHCG | ≤ 0.2 |
| TFPP | ≤ 0.2 |
| TVLR | ≤ 0.2 |
| HFIG | ≤ 0.2 |
| QFSY | ≤ 0.2 |
| YSDR | ≤ 0.2 |
| WWES | ≤ 0.2 |
| LTYY | ≤ 0.2 |
| AHYL | ≤ 0.2 |
| VWPP | ≤ 0.2 |
| VLRY | ≤ 0.2 |
| DDAR | ≤ 0.2 |
| SAAR | ≤ 0.2 |
| NCCL | ≤ 0.2 |
| LEAV | ≤ 0.2 |
| PSFW | ≤ 0.2 |
| KSVG | ≤ 0.2 |
| VKLW | ≤ 0.2 |
| GSIL | ≤ 0.2 |
| THGR | ≤ 0.2 |

| Variant | one-hybrid fitness for binding parS DNA |
| --- | --- |
| VSGF | ≤ 0.2 |
| TKWY | ≤ 0.2 |
| PRHF | ≤ 0.2 |
| LMMA | ≤ 0.2 |
| SDKS | ≤ 0.2 |
| TTYI | ≤ 0.2 |
| NALW | ≤ 0.2 |
| KYQA | ≤ 0.2 |
| HEVS | ≤ 0.2 |
| EYLY | ≤ 0.2 |
| QFDR | ≤ 0.2 |
| RLGS | 0.981 |
| TAMT | ≤ 0.2 |
| GLKL | ≤ 0.2 |
| LTHR | ≤ 0.2 |
| RIRQ | ≤ 0.2 |
| TLME | ≤ 0.2 |
| PYRR | ≤ 0.2 |
| MPTL | ≤ 0.2 |
| MPLD | ≤ 0.2 |
| KRQQ | ≤ 0.2 |
| LIRC | ≤ 0.2 |
| PVLE | ≤ 0.2 |
| HFKS | ≤ 0.2 |
| SHME | ≤ 0.2 |
| QGVH | ≤ 0.2 |

| Variant | one-hybrid fitness for binding parS DNA |
| --- | --- |
| YLPV | ≤ 0.2 |
| VALE | ≤ 0.2 |
| PEAP | ≤ 0.2 |
| KRDG | ≤ 0.2 |
| TRTP | ≤ 0.2 |
| VLPF | ≤ 0.2 |
| CCKS | ≤ 0.2 |
| VLFL | ≤ 0.2 |
| SVEI | ≤ 0.2 |
| ETIH | ≤ 0.2 |
| HNVS | ≤ 0.2 |
| NIDH | ≤ 0.2 |
| AHWC | ≤ 0.2 |
| GIDF | ≤ 0.2 |
| PYNA | ≤ 0.2 |
| MKCF | ≤ 0.2 |
| WGQC | ≤ 0.2 |
| RLQG | 1.01 |
| QPFR | ≤ 0.2 |
| KELR | ≤ 0.2 |
| YVAM | ≤ 0.2 |
| SPQV | ≤ 0.2 |
| PNCG | ≤ 0.2 |
| QWGA | ≤ 0.2 |
| YTPS | ≤ 0.2 |
| QPNR | ≤ 0.2 |

| Variant | one-hybrid fitness for binding parS DNA |
| --- | --- |
| FVIE | ≤ 0.2 |
| HHLT | ≤ 0.2 |
| TGCT | ≤ 0.2 |
| YRLV | ≤ 0.2 |
| WRSI | ≤ 0.2 |
| KFPI | ≤ 0.2 |
| IISE | ≤ 0.2 |
| YDLE | ≤ 0.2 |
| SPIY | ≤ 0.2 |
| MQTK | ≤ 0.2 |
| ESRR | ≤ 0.2 |
| WITF | ≤ 0.2 |
| ATYK | ≤ 0.2 |
| QWTN | ≤ 0.2 |
| AQNL | ≤ 0.2 |
| VNTQ | ≤ 0.2 |
| LADY | ≤ 0.2 |
| INRI | ≤ 0.2 |
| QNRD | ≤ 0.2 |
| QYWA | ≤ 0.2 |
| FEDR | ≤ 0.2 |
| KRVN | ≤ 0.2 |
| SFNY | ≤ 0.2 |
| PCRG | ≤ 0.2 |
| TYQM | ≤ 0.2 |
| MWEI | ≤ 0.2 |

| Variant | one-hybrid fitness for binding parS DNA |
| --- | --- |
| RRYC | 0.63 |
| QSCA | ≤ 0.2 |
| YVVR | ≤ 0.2 |
| WTTC | ≤ 0.2 |
| RGRA | 0.496 |
| QWSS | ≤ 0.2 |
| QNAY | ≤ 0.2 |
| RHKF | 0.255 |
| LLPW | ≤ 0.2 |
| LIVM | ≤ 0.2 |
| CRSH | ≤ 0.2 |
| MARF | ≤ 0.2 |
| IIMT | ≤ 0.2 |
| PDDY | ≤ 0.2 |
| QREP | ≤ 0.2 |
| FLVY | ≤ 0.2 |
| RRPV | ≤ 0.2 |
| DHRS | ≤ 0.2 |
| YPRI | ≤ 0.2 |
| QKWL | ≤ 0.2 |
| PTSH | ≤ 0.2 |
| TLEV | ≤ 0.2 |
| SSFC | ≤ 0.2 |
| NHSD | ≤ 0.2 |
| RPRG | ≤ 0.2 |
| GMSF | ≤ 0.2 |

| Variant | one-hybrid fitness for binding parS DNA |
| --- | --- |
| QKEV | ≤ 0.2 |
| QMLC | ≤ 0.2 |
| MCPM | ≤ 0.2 |
| GGRM | ≤ 0.2 |
| FQHC | ≤ 0.2 |
| IKLS | ≤ 0.2 |
| QGWW | ≤ 0.2 |
| EGNC | ≤ 0.2 |
| SLMC | ≤ 0.2 |
| DKRT | ≤ 0.2 |
| MLER | ≤ 0.2 |
| YNQM | ≤ 0.2 |
| YQPL | ≤ 0.2 |
| CDDS | ≤ 0.2 |
| PQNF | ≤ 0.2 |
| NCFP | ≤ 0.2 |
| KELD | ≤ 0.2 |
| RNNR | ≤ 0.2 |
| TNTF | ≤ 0.2 |
| CIIC | ≤ 0.2 |
| RFFM | ≤ 0.2 |
| KCND | ≤ 0.2 |
| DPGM | ≤ 0.2 |
